{"source": "PubChem BioAssay AID2451", "about": "(National Center for Advancing Translational Sciences (NCATS), 2010)", "note": "Among all 290,000 compounds or so, about 2,100 (0.72%) were called active. Inconclusive means that the source gave no clear call. Such entries were picked first, then a sample of the others. Calls come from the whole dose curve; as a rule, active = well fitted inhibition curve with a large enough effect; inconclusive = small, poorly fitted or top-dose-only effect, or effect the other way; inactive = flat fitted curve, though single readings scatter. Potencies beside an inconclusive call are fits to weak or partial responses and may not hold up. % is set by controls: 0 for no effect and ±100 for the full control effect; potency is the fitted concentration of half-maximal effect; tags give direction and shape of the fitted curve."}
{"molecular_target": "Fructose-bisphosphate aldolase (Giardia intestinalis (strain ATCC 50803 / WB clone C6)) (UniProt A8B2U2)", "sequence (A8B2U2 whole entry, looked up)": "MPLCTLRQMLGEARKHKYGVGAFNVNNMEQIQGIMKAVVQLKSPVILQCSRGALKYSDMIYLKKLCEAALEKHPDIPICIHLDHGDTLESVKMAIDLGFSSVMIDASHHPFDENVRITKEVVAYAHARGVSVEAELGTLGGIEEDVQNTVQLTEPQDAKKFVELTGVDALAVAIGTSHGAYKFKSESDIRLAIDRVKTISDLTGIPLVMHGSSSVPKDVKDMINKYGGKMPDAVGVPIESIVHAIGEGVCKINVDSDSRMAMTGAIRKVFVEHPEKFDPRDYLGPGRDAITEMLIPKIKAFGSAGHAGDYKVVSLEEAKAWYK", "test": "qHTS Assay for Inhibitors of Fructose-1,6-bisphosphate Aldolase from Giardia Lamblia; note: nearly all actives have a fitted effect of over 55% in size", "settings": "purified Giardia FBPA; activity, negative = inhibition: at 59.6 µM (top of the series) unless noted", "from_the_text": "Assay Provider: Osnat Herzberg, University of Maryland\nThe objective of this project is to obtain compounds that inhibit Giardia lamblia growth. G. lamblia is a human pathogen which afflicts impoverished nations; it is the most common cause of outbreaks of diarrhea in the United States. During the course of our study of potential drug targets in Giardia, we have identified the Class II (Zn2+ functions in electrophilic catalysis) fructose-1,6-bisphosphate aldolase (FBPA) as an excellent candidate for drug targeting. FBPA is a key glycolytic pathway enzyme, essential for G. lamblia survival. The human FBPA belongs to the Class I aldolases, which have a different substrate binding site structure and a radically different catalytic mechanism (employing a lysine-Schiff base intermediate). Therefore, affinity-based or mechanism-based inhibitors of the Giardia FBPA are expected not to interfere with the catalytic function of the human FBPA.\nA glyceraldehyde-3-phosphate dehydrogenase/triose phosphate isomerase/NAD/arsenate coupled assay was adapted to the 1536-well HTP format for use in the primary screen. This was done by coupling it to a diaphorase/resazurin/resorufin reaction that can be monitored by fluorescence (excitation, 544 nm; emission, 590 nm). Compounds identified in this screen will be further evaluated by coupling the glycerol-3-phosphate/triose phosphate isomerase/NADH assay to a phenazine methosulfate/tetranitroblue tetrazolium color reaction. False positives due to the dehydrogenases and diaphorase inhibition will be eliminated, and selectivity assay will triage inhibitors of mammalian triose phosphate isomerase and the Class I FBPA. G. lamblia FBPA inhibitors identified by the in vitro analyses will be examined for growth inhibition of Giardia trophozoites, and for cytotoxicity in human cells.\nStep,Parameter,Value,Description\n1,Enzyme reagent,2 uL,40 nM FBPA\n2,Compound,23 nL,3.68 nM-57.5 uM final concentration\n3,Time,10 min,RT Incubation\n4,Substrate/detection Reagent,2 uL,Substrate + enzyme coupling system + AmpLite Red kit\n5,Time,20 min,RT Incubation\n6,Detector,525 nm/598 nm (Fluorescence),ViewLux Fluorescence Read (Read 1)\n1,Medium-binding black solid-bottom Kalypsys plates. FRD or Kalypsys dispenser, 2 uL of FBPA enzyme. Bottle kept at 4C.\n2,Compound Library (10 mM ,1:5 dilution). Pin-transferred for a [final] range of 3.68 nM-57.5 uM.\n4,FRD or Kalypsys dispenser, 2 uL of reaction mixture. Bottle kept at 4C and covered in foil to protect from light.\n6,ViewLux Protocol 1194; Excitation filter wheel A (525/20 Pol; BODIPY TMR FP), Emission filter wheel B (598/25 S; BODIPY TMR FP S).\nKeywords: Fructose-bisphosphate aldolase, FBPA , Giardia lamblia , Giardia, HTS, Inhibitors"}
{"compound": "CCOc1ccccc1CNC(c1ccccc1)c1ccccc1", "Potency": "inconclusive: 31.6 µM [inhibitor, partial curve]"}
{"compound": "O=C(OCC(=O)N1CCN(C(=O)c2ccco2)CC1)c1cc(-c2ccco2)nc2ccccc12", "Potency": "inconclusive: 17.7 µM [inhibitor, single point]"}
{"compound": "CC(C)NC(=S)Nc1cccc2cnccc12", "Potency": "inconclusive: 15.8 µM [inhibitor, partial curve]"}
{"compound": "CCCN(CCC(=O)Nc1cc(OC)cc(OC)c1)CC1CC1", "Potency": "inconclusive: 10 µM [inhibitor, partial curve]"}
{"compound": "COc1ccc(CNC(=O)CN(C)Cc2ccc(C(C)(C)C)cc2)cc1", "Potency": "active: 22.4 µM"}
{"compound": "COc1ccc(C(=O)NC(=S)NNC(=O)c2c(-c3ccccc3)noc2C)cc1", "Potency": "inconclusive: 9.98 µM [activator, partial curve]"}
{"compound": "O=C(Nc1cccc(C(F)(F)F)c1)c1cccnc1NCCO", "Potency": "inconclusive: 28.2 µM [inhibitor, partial curve]"}
{"compound": "COc1ccc(CCNCC(O)COc2ccc(OC)cc2C(C)(C)C)cc1", "note": "(configuration not stated)", "Potency": "inconclusive: 25.1 µM [inhibitor, single point]"}
{"compound": "Nc1nc(SCC(=O)c2cc3ccccc3o2)n[nH]1", "Potency": "inconclusive: 15.8 µM [inhibitor, partial curve]"}
{"compound": "CO[C@H]1OC[C@@]2(C)[C@@H]3C4=C(CN2C(=O)OC(C)(C)C)[C@H](C)[C@H](CO)[C@H](CO)[C@H]4CC[C@H]13", "activity, negative = inhibition": "inactive: -9.19%"}
{"compound": "CC1=NN(c2nc3ccccc3[nH]2)C(=O)C1Cc1ccccc1", "note": "(configuration not stated)", "Potency": "active: 17.7 µM"}
{"compound": "COc1ccccc1Nc1c2c(nc3ccccc13)CCC2", "activity, negative = inhibition": "inactive: 7.43%"}
{"compound": "O=C(CN1CCCC1)Nc1ccc(Cl)cc1C(=O)c1ccccc1", "Potency": "inconclusive: 17.7 µM [inhibitor, partial curve]"}
{"compound": "CCCn1c(=O)c(C(=O)Nc2ccccc2C)c(O)c2ccccc21", "Potency": "inconclusive: 39.8 µM [inhibitor, single point]"}
{"compound": "CCC(SC1=Nc2ccccc2C2=NC(CC(C)C)C(=O)N12)C(=O)Nc1ccc2c(c1)OCO2", "note": "(configuration not stated)", "Potency": "inconclusive: 17.7 µM [inhibitor, single point]"}
{"compound": "CN(C)c1cccc2c(C#N)ccc(N(C)C)c12", "Potency": "inconclusive: 6.29 µM [inhibitor, partial curve]"}
{"compound": "Oc1ccccc1N=Cc1ccc[nH]1", "Potency": "inconclusive: 19.9 µM [inhibitor, partial curve]"}
{"compound": "O=[N+]([O-])c1ccc(C=Nc2cccc3ccccc23)s1", "Potency": "inconclusive: 15.8 µM [inhibitor, partial curve]"}
{"compound": "CC(=O)OCCNc1cc(Sc2nc3ccccc3[nH]2)c2nonc2c1[N+](=O)[O-]", "Potency": "inconclusive: 0.354 µM [inhibitor, full curve]"}
{"compound": "Cc1cc2c(NC(=O)Nc3ccc(C(F)(F)F)cc3)cccc2nn1", "Potency": "inconclusive: 5.61 µM [inhibitor, full curve, poor fit]"}
{"compound": "C=CCn1c2ccccc2c2nnc(SC(CC)C(=O)Nc3sc4c(c3C#N)CCCC4)nc21", "note": "(configuration not stated)", "activity, negative = inhibition": "inactive: 0.0143%"}
{"compound": "O=C(Nc1cccc(Cl)c1)OCC#CCCl", "Potency": "active: 7.06 µM"}
{"compound": "COc1ccc(Nc2nc3ccccc3n2C)cc1", "Potency": "inconclusive: 17.8 µM [inhibitor, partial curve]"}
{"compound": "O=C(Nc1ccc(N2CCCC2)cc1)c1cccc(Cl)c1", "activity, negative = inhibition": "inconclusive: 35.4% [activator]"}
{"compound": "COC(=O)CC(NC(=O)c1ccco1)c1ccc(C(C)C)cc1", "note": "(configuration not stated)", "activity, negative = inhibition": "inactive: 0.364%"}
{"compound": "Nc1ccc(N2CCOCC2)c2nonc12", "Potency": "active: 2.81 µM"}
{"compound": "Cc1ccc2c(c1)C(N1CCCC1=O)CC(c1ccco1)N2", "note": "(configuration not stated)", "Potency": "inconclusive: 15.8 µM [inhibitor, partial curve]"}
{"compound": "Cc1ccc(C)c(NC(=O)CCN2CCN(CCO)CC2)c1", "Potency": "inconclusive: 31.6 µM [inhibitor, partial curve]"}
{"compound": "COc1cccc(C(=O)Nc2nnc(-c3ccc(F)cc3)o2)c1", "Potency": "inconclusive: 44.6 µM [inhibitor, single point]"}
{"compound": "COc1ccc(OC)c(C(=O)CSc2nc3cccnc3n2C)c1", "Potency": "inconclusive: 2.51 µM [inhibitor, full curve, poor fit]"}
{"compound": "CCN(CC)c1ccc(/C=C2\\SC(=O)N(C(C)C)C2=O)o1", "Potency": "inconclusive: 11.2 µM [inhibitor, partial curve]"}
{"compound": "COc1ccc(C(=O)/C=C2\\NCCc3cc(OC)c(OC)cc32)cc1OC", "activity, negative = inhibition": "inactive: 23.8%"}
{"compound": "CCN(CC(=O)Nc1ccc(C(=O)OC)cc1)Cc1ccccc1", "Potency": "inconclusive: 15.8 µM [inhibitor, partial curve]"}
{"compound": "CCn1c(C)c(C(C)=O)c(N2CCN(c3ccc(OC)cc3)CC2)nc1=S", "Potency": "inconclusive: 14.1 µM [inhibitor, partial curve]"}
{"compound": "NS(=O)(=O)c1ccc(NC(=S)NC2CCCCC2)cc1", "Potency": "active: 9.98 µM"}
{"compound": "O=C1Cc2ccccc2C(=O)N1OCc1ccc(Cl)cc1", "Potency": "inconclusive: 0.5 µM [inhibitor, full curve]"}
{"compound": "CCOc1cc(/C=N/Nc2nnc(C)n2N)ccc1O", "Potency": "active: 15.8 µM"}
{"compound": "Cn1cnnc1SCC(=O)c1cc2ccccc2oc1=O", "Potency": "inconclusive: 17.7 µM [inhibitor, partial curve]"}
{"compound": "CC(C)(C)NC(=O)c1sccc1C(=O)O", "activity, negative = inhibition": "inactive: 3.5%"}
{"compound": "CC1=C(C(=O)O)N2C(=O)C(NC(=O)C(N)c3ccc(O)cc3)C2SC1", "note": "(configuration not stated)", "Potency": "inconclusive: 14.1 µM [inhibitor, partial curve]"}
{"compound": "O=C1CC(N2CCN(c3ccccn3)CC2)C(=O)N1CC(c1ccccc1)c1ccccc1", "note": "(configuration not stated)", "activity, negative = inhibition": "inactive: -5.01%"}
{"compound": "S=c1[nH]nc(CSCc2ccccc2Cl)n1-c1ccccc1", "activity, negative = inhibition": "inactive: 8.91%"}
{"compound": "COc1ccc(NC(=O)c2cccc(S(=O)(=O)N3CCOCC3)c2)cn1", "Potency": "inconclusive: 17.7 µM [inhibitor, partial curve]"}
{"compound": "O=C(CSc1nnc2c(n1)[nH]c1ccc(S(=O)(=O)N3CCOCC3)cc12)Nc1ccc(F)c(F)c1", "Potency": "inconclusive: 17.7 µM [inhibitor, single point]"}
{"compound": "O=C(c1ccccc1)C(C(=O)N1CCCCC1)n1ccccc1=O", "note": "(configuration not stated)", "activity, negative = inhibition": "inactive: 20.4%"}
{"compound": "Cn1cc(CN2CCc3c([nH]c4ccccc34)C2C2CCCCC2)cn1", "note": "(configuration not stated)", "Potency": "inconclusive: 22.3 µM [inhibitor, partial curve]"}
{"compound": "C1CCC(Nc2nc3nonc3nc2N2CCSCC2)C1", "activity, negative = inhibition": "inactive: 4.53%"}
{"compound": "CCOC(=O)C(=Cc1ccc(F)cc1)C(=O)OCC", "Potency": "inconclusive: 31.5 µM [inhibitor, single point]"}
{"compound": "N#Cc1c(N)sc2c1CCN(C(=O)OCc1ccccc1)C2", "Potency": "inconclusive: 15.8 µM [inhibitor, partial curve]"}
{"compound": "CCN1c2ccccc2NC2C1C(C(C)=O)C(=O)N2c1ccc(Cl)cc1", "note": "(configuration not stated)", "Potency": "inconclusive: 3.55 µM [inhibitor, full curve]"}
{"compound": "CN1c2ccsc2C(O)=C(C(=S)Nc2ccccc2)S1(=O)=O", "Potency": "inconclusive: 17.7 µM [inhibitor, single point]"}
{"compound": "Cn1c(=O)n(C)c2cc(/C=N/NC(N)=S)ccc21", "Potency": "inconclusive: 15.8 µM [inhibitor, partial curve]"}
{"compound": "O=C1C=C(c2ccccc2)C[C@H](c2cccs2)[C@H]1n1nnc([N+](=O)[O-])n1", "Potency": "inconclusive: 15.8 µM [inhibitor, partial curve]"}
{"compound": "CCOC(=O)c1cccc(NC(=S)NC(=O)c2cccnc2)c1", "Potency": "active: 10 µM"}
{"compound": "CC(C)NS(=O)(=O)c1ccc(OCC(=O)N2CCCC2)cc1", "activity, negative = inhibition": "inactive: 4.25%"}
{"compound": "NS(=O)(=O)c1ccc(NC(=S)Nc2ccc(S(=O)(=O)N3CCCC3)cc2)cc1", "activity, negative = inhibition": "inactive: -12.8%"}
{"compound": "CCCCC(=O)NC(c1ccc(Cl)cc1Cl)c1ccc2cccnc2c1O", "note": "(configuration not stated)", "Potency": "inconclusive: 10 µM [activator, partial curve]"}
{"compound": "O=[N+]([O-])c1ccc(S(=O)(=O)N(CCCN2CCOCC2)Cc2cccs2)cc1", "Potency": "inconclusive: 17.7 µM [inhibitor, partial curve]"}
{"compound": "CC(=O)N1CCc2c(sc(NC(=O)CN3C(=O)CCC3=O)c2C(N)=O)C1", "Potency": "inconclusive: 5 µM [inhibitor, single point]"}
{"compound": "CC(=O)C(C(C)=O)C1(O)C(=O)c2ccccc2C1=O", "Potency": "inconclusive: 6.29 µM [inhibitor, partial curve]"}
{"compound": "Cc1cc2nc(-c3ccccc3)cc(=O)n2[nH]1", "Potency": "inconclusive: 15.8 µM [inhibitor, partial curve]"}
{"compound": "CCC(C(=O)NC1CCCCC1)n1c(SCc2cccc(C)c2)nc2ccncc21", "note": "(configuration not stated)", "activity, negative = inhibition": "inactive: 9.15%"}
{"compound": "c1ccc(-c2[nH]ncc2-c2ccnc3ccccc23)nc1", "Potency": "inconclusive: 15.8 µM [inhibitor, single point]"}
{"compound": "COc1ccccc1N1CCN(/N=C\\c2cccnc2)CC1", "Potency": "inconclusive: 20 µM [inhibitor, single point]"}
{"compound": "COc1ccc(-c2cc(=Nc3ccc(C(=O)O)cc3)c3cc(C)ccc3o2)cc1", "activity, negative = inhibition": "inactive: -1.48%"}
{"compound": "Cc1ccc(C)c2c1cc(C)c1nnc(SCC(=O)NCc3ccc4c(c3)OCO4)n12", "Potency": "inconclusive: 19.9 µM [inhibitor, partial curve]"}
{"compound": "COCCNc1nc(-c2cccc(OC)c2)nc2ccccc12", "activity, negative = inhibition": "inactive: -15.3%"}
{"compound": "CCc1ccc(NC(=O)N(CCN2CCOCC2)Cc2ccc3c(c2)CCCN3CC)cc1", "Potency": "inconclusive: 17.7 µM [inhibitor, single point]"}
{"compound": "Fc1ccc(NC(=S)N/N=C/c2ccc(F)c(F)c2)cc1", "activity, negative = inhibition": "inactive: -0.305%"}
{"compound": "C/C(=N\\Nc1nccnc1Cl)c1ccc(F)cc1", "Potency": "inconclusive: 19.9 µM [inhibitor, partial curve]"}
{"compound": "Cc1nc2ccccn2c1-c1csc(NCc2ccco2)n1", "Potency": "inconclusive: 11.2 µM [inhibitor, partial curve]"}
{"compound": "CC(C)N1C(=O)C2C(c3ccccc3O)NC(C)(C(=O)O)C2C1=O", "note": "(configuration not stated)", "Potency": "inconclusive: 1.77 µM [inhibitor, full curve, poor fit]"}
